# Measurements as given in PubChem BioAssay AID1745853 (National Center for Advancing Translational Sciences (NCATS), 2022).
# Where “and” joins values, the source holds several entries; their conditions need not be identical. Identical values can stand only once. The list shows a part of the results. The main result of the screen is listed elsewhere. These columns were measured beside it and carry no call.
# Legend:
# Assay in all cases: Primary Screen for Target Class Profiling of Small Molecule Inhibitors of Methyltransferases
# [1] = target: Glycine N-methyltransferase (Homo sapiens) (UniProt Q14749); conditions: purified enzyme, MTase-Glo SAH luminescence; measured here: GNMT inhibition; at 40 µM; stronger effect = lower value
# Procedure, shortened: (§1)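 Each enzyme was assayed with SAM and its substrate. SAH formation detected by MTase-Glo luminescence; single-point 40 uM screen[…].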
# [2] = target: Guanidinoacetate N-methyltransferase (Homo sapiens) (UniProt Q14353); conditions: purified enzyme, MTase-Glo SAH luminescence; measured here: GAMT inhibition; at 40 µM; stronger effect = lower value
# Procedure, shortened: as §1
# [3] = target: Histamine N-methyltransferase (Homo sapiens) (UniProt P50135); conditions: purified enzyme, MTase-Glo SAH luminescence; measured here: HNMT inhibition; at 40 µM; stronger effect = lower value
# Procedure, shortened: as §1
# [4] = target: Nicotinamide N-methyltransferase (Homo sapiens) (UniProt P40261); conditions: purified enzyme, MTase-Glo SAH luminescence; measured here: NNMT inhibition; at 40 µM; stronger effect = lower value
# Procedure, shortened: as §1
# [5] = target: Phenylethanolamine N-methyltransferase (Homo sapiens) (UniProt P11086); conditions: purified enzyme, MTase-Glo SAH luminescence; measured here: PNMT inhibition; at 40 µM; stronger effect = lower value
# Procedure, shortened: as §1
# % is set by controls: 0 for no effect and ±100 for the full control effect.
SMILES,"activity change, negative = inhibition [1]","activity change, negative = inhibition [2]","activity change, negative = inhibition [3]","activity change, negative = inhibition [4]","activity change, negative = inhibition [5]"
CCC(=O)O[C@H]1C(C)(C)[C@H]([C@@H](O)C(=O)OC)[C@]2(C)C(=O)[C@@]1(O)[C@H]1O[C@]13C1CC(=O)O[C@@H](c4ccoc4)[C@]1(C)CCC32 (stereo not given in full),0%,-15.5%,-1.89%,-26.2%,-5.79%
CC(C)C1=NOC2(CCN(C(=O)c3ccccc3F)CC2)C1,-4.89%,-12.4%,-2.65%,-8.44%,-10.4%
CC1(C(=O)NCc2ccccc2)Cn2c(nc3ccccc32)C(=O)N1CCCc1ccccc1 (stereo not given),-1.53%,4.17%,-1.17%,3.65%,-1.28%
Cc1ccc(Cn2c(=O)c3ccccc3n3c(=O)n(Cc4ccccc4F)nc23)cc1,3.78%,4.31%,7.07%,-0.614%,-0.002%
CCOC(=O)c1cc2n(n1)CC(C)(C(=O)NCCC(C)C)N(c1cccc(OC)c1)C2=O (stereo not given),-1.17%,0.41%,0.247%,8.12%,-0.353%
O=S(=O)(NCCc1ccc(Cl)cc1)c1ccc2[nH]c3c(c2c1)CCCC3,-3.95%,3.54%,-5.74%,-5.13%,0.136%
CCCc1nc2c3ccccc3n(CC(=O)N3CCN(c4ccccc4F)CC3)c(=O)n2n1,16.3%,0%,9.23%,2.88%,4.81%
Cn1cc(S(C)=O)c(=O)c2ccc(F)cc21 (stereo not given),-1.78%,1.69%,-0.023%,-15.7%,-8.41%
COCCCNC(=O)C1(C)Cn2nc(-c3ccccc3)cc2C(=O)N1c1ccc2c(c1)OCO2 (stereo not given),1.24%,0%,2.2%,3.21%,-2.71%
O=C(O)c1ccccc1C(=O)Nc1ccc(-c2ccccc2)cc1,-1.93%,-1.09%,5.55%,-11.2%,3.11%
COCCCNC(=O)C1(C)Cn2nc(-c3ccccc3)cc2C(=O)N1c1cc(C)cc(C)c1 (stereo not given),-4.71%,0.569%,-4.42%,-4.64%,-7.71%
CCN1C(=O)c2cc(C(=O)NCc3ccccc3C)nn2CC1(C)C(=O)NC1CCCC1 (stereo not given),7.44%,0.064%,4.72%,8.18%,5.81%
CN1C(=O)c2ccccc2NC(=O)[C@]12O[C@@H]2c1cccc(O)c1,1.74%,-0.797%,9.1%,-11.1%,-3.38%
CC(=O)N1CCN(CCOc2ccc(C3CCN(C4=Nn5c(nnc5C(F)(F)F)CC4)CC3)cc2)CC1,-10.3%,6.79%,3.53%,-15.8%,-1.63%
CCc1cc(=O)n(CC(=O)Nc2ccccc2OC)c(N2CCOCC2)n1,-2.39%,-3.13%,-3.92%,-3.09%,-2.47%
O=C1N=C(N2CCOCC2)CN1c1ccc(Cl)cc1,-6.66%,-10.8%,0.762%,-16.9%,-6.15%
CC(C)OCCCn1c(=O)c2ccccc2n2c(CCC(=O)Nc3cccc(Cl)c3)nnc12,-11.2%,0%,3.33%,-0.628%,-0.352%
O=C(CSc1nnc2n(CCc3ccccc3)c(=O)c3ccccc3n12)Nc1ccccc1F,0.927%,0%,8.57%,0.708%,4.07%
CC(C)N1C[C@@H](C(=O)O)C[C@H](C(=O)Nc2ccc(F)cc2)C1,-1.54%,-0.141%,0.241%,-5.26%,-2.32%
O=C(NCc1ccccc1)N1CCn2cccc2C1Cc1ccccc1 (stereo not given),-5.25%,-2.52%,-7.26%,-6.96%,-8.38%

SMILES,"activity change, negative = inhibition [1]","activity change, negative = inhibition [2]","activity change, negative = inhibition [3]","activity change, negative = inhibition [4]","activity change, negative = inhibition [5]"
CCCn1c(=O)c2ccc(C(=O)NC(C)CC)cc2n2c(=O)n(CC(=O)c3ccc(C)cc3C)nc12 (stereo not given),4.21%,4.56%,6.53%,-0.329%,-0.008%
CCN(CCCNC(=O)CCCc1nnc2n3nc(C)nc3c3ccccc3n12)c1cccc(C)c1,-10%,0.669%,-6.71%,5.96%,-5.64%
CCCN1C(=O)c2c(C(=O)NCc3cccc(C)c3)ncn2CC1(C)C(=O)NC1CCCC1 (stereo not given),1.62%,0%,3.24%,4.8%,4.21%
OC[C@H]1O[C@@H](OCc2ccccc2)[C@H](O[C@@H]2OC[C@@H](O)[C@H](O)[C@H]2O)[C@@H](O)[C@@H]1O,6.81%,5.92%,12%,-6.54%,5.36%
CCc1cccc2c3c([nH]c12)C(CC)(CC(=O)O)OCC3 (stereo not given),-9.61%,-9.01% and 0.073%,-1.93%,-19.8% and -5.63%,-3.07% and 3.84%
CCCn1c(=O)c2cc(Cl)ccc2n2c(SCc3cccc(C)c3)nnc12,-14.9%,-0.526%,-2.58%,-13.8%,-1.82%
CCN1C(=O)c2cc(C(=O)Nc3ccc(C)cc3)nn2CC1(C)C(=O)NC1CCCC1 (stereo not given),-0.543%,3.17%,-7.35%,-2.38%,2.06%
CC(C)N1CCN(C(=O)CC2=C3CCCCC3NC2=O)CC1 (stereo not given),-2.12%,3.4%,1.03%,2.08%,16.5%
COc1c(OC2OC(CO)C(O)C(O)C2O)ccc(O)c1C(=O)OCc1ccccc1O[C@@H]1O[C@H](CO)[C@@H](O)[C@H](O)[C@H]1O (stereo not given in full),1.88%,-3.79%,2.22%,-14.7%,1.11%
Cc1cc2c(cc3n2CC(C)(C(=O)NC2CCCCCCC2)N(Cc2ccccc2F)C3=O)o1 (stereo not given),-1.9%,2.07%,1.91%,-0.439%,-0.745%
CCCN1C(=O)c2cc(C(=O)NCc3cccnc3)nn2CC1(C)C(=O)NC1CCCC1 (stereo not given),7.2%,0.582%,3.23%,4.89%,5.03%
CC(C)OCCCNC(=O)Cn1ccc2cc(S(=O)(=O)N3CCCCC3)ccc21,4.75%,0%,3.52%,4.04%,1.46%
COc1ccc(CNC(=O)CSc2nnc3n(CCc4ccccc4)c(=O)c4ccccc4n23)cc1,-1.65%,5.03%,2.31%,-4.87%,-2%
CCCn1c(=O)c2ccccc2n2c(=O)n(CC(=O)Nc3ccc(Cl)cc3)nc12,6.08%,0.054%,9.73%,0.67%,3.79%
COC(=O)c1cc2n(n1)CCCN(C(=O)COc1ccc(C)c(C)c1)C2,-1.57%,-0.14%,-0.901%,-6.58%,0.194%
Cn1c(=O)n(C)c2cc(S(=O)(=O)NCC3CCCO3)ccc21 (stereo not given),-3.09%,2.77%,-5.62%,-7.94%,-9.11%
NC(=O)c1cccc(CC2CCN(C(=O)c3ccnc(-n4cnnc4)c3)C2)c1 (stereo not given),-2.73%,-3.85%,-8.05%,-9.02%,2.49%
COCCn1c(=O)c2c(n1Cc1ccccc1)CN(C(=O)c1cc3ccccc3[nH]1)CC2,-10.5%,-6.77%,-1.59%,-11.1%,-1.43%
CCCNC(=O)N1CCCCC1c1n[nH]c(C)n1 (stereo not given),-6.16%,-6.69%,-3.05%,-12.3%,-2.33%
CCC(C)NC(=O)c1ccc2c(=O)n(C)c3nnc(SCC(=O)Nc4cccc(OC)c4)n3c2c1 (stereo not given),9.85%,0%,10.7%,9.89%,6.28%

SMILES,"activity change, negative = inhibition [1]","activity change, negative = inhibition [2]","activity change, negative = inhibition [3]","activity change, negative = inhibition [4]","activity change, negative = inhibition [5]"
COCCN1C(=O)c2cc3sccc3n2CC1(C)C(=O)NC1CCCCCCC1 (stereo not given),-2.25%,3.19%,-1.64%,-4.98%,-3.59%
COc1ccc(C(=O)NC2CCN(c3nc4ncccc4o3)CC2)cc1,-8.74%,-14.6%,-4.17%,-14.8%,-9.52%
N#Cc1cc(F)cc(-c2nc(-c3ccccn3)no2)c1,-16.6%,-11.4%,-9.64%,-33.2%,-8.94%
COc1ccc(NC(=O)CN(C)S(=O)(=O)c2ccc3[nH]c4c(c3c2)CCCC4)cc1OC,-7.27%,3.49%,-4.1%,-5.39%,-4.63%
CC(C)NC(=O)c1ccc2c(=O)n(C(C)C)c3nn(CC(=O)Nc4cccc(Cl)c4)c(=O)n3c2c1,4.8%,0.265%,3.87%,-0.774%,9.29%
CN(Cc1ccc(F)cc1)S(=O)(=O)c1cccs1,-1.7%,-0.579%,0.422%,-5.65%,1.44%
CC(C)CCn1c(=O)c2ccc(C(=O)NCC(C)C)cc2n2c(=O)n(Cc3cccc(Cl)c3)nc12,7.94%,1.23%,11.7%,3.94%,7.22%
CCCn1c(=O)c2ccccc2n2c(SCc3cccc(Cl)c3)nnc12,-8.69%,9.9%,2.76%,-13.2%,3.03%
COc1ccccc1CN1C(=O)c2cc3oc(C)cc3n2CC1(C)C(=O)NC1CCCCCC1 (stereo not given),-1.19%,4.02%,-0.635%,0.776%,0.158%
CCCCS(=O)(=O)NC1CCc2nn(CC3CC3)c(=O)n2CC1 (stereo not given),-2.81%,-6.12%,0.649%,-8.65%,-3.9%
Cc1ccccc1C(=O)N1CCC2(CC1)CC(c1cccc(C(F)(F)F)c1)=NO2,-10.1%,-6.37%,-5.17%,-16.7%,-13.6%
O=c1c2ccccc2n2c(=O)n(Cc3cccc(Cl)c3)nc2n1CCc1ccccc1,-2.88%,-6.02%,10.6%,-4.35%,-3.32%
COc1cc(OC)cc(N2C(=O)CSc3c(c4ccccc4n3C)C2C(=O)NCc2ccc(F)cc2)c1 (stereo not given),-4.08%,0.61%,2.69%,1.2%,4.71%
CC1(C)CC2C=C(C(=O)O)C3COC(=O)C(O)(CO)C23C1 (stereo not given),-1.9%,0.102%,0.251%,-10.5%,-0.182%
Cc1nc(N)sc1-c1ccnc(Nc2ccc(N3CCOCC3)cc2)n1,-27.9%,-4.75%,-4.2%,-14.5%,-4.91%
COc1ccc(CCN2C(=O)c3cc4sccc4n3CC2(C)C(=O)NC2CCCCC2)c(OC)c1 (stereo not given),2.4%,0%,-0.889%,2.02%,1.31%
Cc1ccc(CN2CC[C@H](c3nnc(-c4ccco4)o3)C2)o1,-5.56%,-4.38%,-1.07%,-9.71%,-0.963%
CC(O)c1cc2n(n1)CCCN(c1ncnc3ccsc13)C2 (stereo not given),-5.13%,0.28%,-0.788%,-3.07%,1.23%
C=CCn1c(=O)c2ccc(C(=O)NC(C)CC)cc2n2c(=O)n(CC(=O)NCc3ccccc3)nc12 (stereo not given),1.06%,3.42%,-2.31%,-5.44%,-2.1%
COC(=O)c1ccc(OC)cc1O[C@@H]1O[C@H](CO[C@@H]2OC[C@@H](O)[C@H](O)[C@H]2O)[C@@H](O)[C@H](O)[C@H]1O,1.07%,2.54%,7.54%,-9.64%,5.62%
